Measurements as given in a collection of fitness landscapes (doi:10.1016/j.celrep.2020.107928).
Over roughly 81,000 sequences, “one-hybrid fitness for binding NBS DNA” has its median near -0.1; the highest 2% begin near 0.36. The list shows a part of the results.

B1: Caulobacter ParB omega fusion; a variant is named by its letters at X, in order, B8GW30 (parent)
chain: MESVVVGEPGMSEGRRGLGRGLSALLGEVDAAPAQAPGEQLGGSREAPIEILQRNPDQPRRTFREEDLEDLSNSIREKGVLQPILVRPSPDTAGEYQIVAGERAWRAAQRAGLKTVPIMVRELDDLAVLEIGIIENVQRADLNVLEEALSYKVLMEKFERTQENIAQTIGKSXSHVANXMRLLXLPDEVQSYLVSGELTAXHARAIAAAADPVALAKQIIEGGLSVRETEALARKAPNLSAGKSKGGRPPRVKDTDTQALESDLSSVLGLDVSIDHRGSTGTLTITYATLEQLDDLCNRLTRGI

Variants of: B1
Test: one-hybrid fitness for binding NBS DNA (the Noc-binding site; scaled: cognate 1, non-cognate 0); higher = stronger binding
Settings: with NBS DNA site
Outline: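 Pre- and post-selection plasmids were Illumina-sequenced, three replicate libraries were pooled, and any variant with under 10 reads was removed. The libraries were Caulobacter ParB with four specificity codons randomised, selected in E. coli USO through a HIS3 reporter whose site is 19 bp from the promoter. Cells grew 48 hours at 37°C on M9 without histidine, with 0.1 mM IPTG and 5 mM 3-AT. Fitness is the log change in variant-to-wild-type read ratio, rescaled against cognate and non-cognate.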
PWPE was tested, and the “one-hybrid fitness for binding NBS DNA” value was at most 0.2.
For HHCG, the “one-hybrid fitness for binding NBS DNA” value was at most 0.2.
In the case of MMSV, the “one-hybrid fitness for binding NBS DNA” value is reported as at most 0.2.
For HKQC, the “one-hybrid fitness for binding NBS DNA” value was at most 0.2.
With YMPR the “one-hybrid fitness for binding NBS DNA” value was at most 0.2.
With NIIS the “one-hybrid fitness for binding NBS DNA” value was at most 0.2.
LNNS was tested, and the “one-hybrid fitness for binding NBS DNA” value was at most 0.2.
For ITRV, the “one-hybrid fitness for binding NBS DNA” value was at most 0.2.
ADWI was tested, and the “one-hybrid fitness for binding NBS DNA” value was at most 0.2.
In the case of NVTS, the “one-hybrid fitness for binding NBS DNA” value is reported as at most 0.2.
In the case of GCSI, the “one-hybrid fitness for binding NBS DNA” value is reported as at most 0.2.
With NCRW the “one-hybrid fitness for binding NBS DNA” value was at most 0.2.
LHER was tested, and the “one-hybrid fitness for binding NBS DNA” value was at most 0.2.
In the case of NDGG, the “one-hybrid fitness for binding NBS DNA” value is reported as at most 0.2.
In the case of TFKE, the “one-hybrid fitness for binding NBS DNA” value is reported as at most 0.2.
With VATA the “one-hybrid fitness for binding NBS DNA” value was at most 0.2.
QSVL was tested, and the “one-hybrid fitness for binding NBS DNA” value was at most 0.2.
With ESVA the “one-hybrid fitness for binding NBS DNA” value was at most 0.2.
PVRF was tested, and the “one-hybrid fitness for binding NBS DNA” value was at most 0.2.
In the case of ACTM, the “one-hybrid fitness for binding NBS DNA” value is reported as at most 0.2.
With VPAN the “one-hybrid fitness for binding NBS DNA” value was at most 0.2.
With GKYS the “one-hybrid fitness for binding NBS DNA” value was at most 0.2.
With PSCV the “one-hybrid fitness for binding NBS DNA” value was at most 0.2.
For MVPV, the “one-hybrid fitness for binding NBS DNA” value was at most 0.2.
With ACNR the “one-hybrid fitness for binding NBS DNA” value was at most 0.2.
VIVC was tested, and the “one-hybrid fitness for binding NBS DNA” value was at most 0.2.
VNDS was tested, and the “one-hybrid fitness for binding NBS DNA” value was at most 0.2.
For RCFC, the “one-hybrid fitness for binding NBS DNA” value was at most 0.2.
With QKAI the “one-hybrid fitness for binding NBS DNA” value was at most 0.2.
SGPI was tested, and the “one-hybrid fitness for binding NBS DNA” value was at most 0.2.
With YHRF the “one-hybrid fitness for binding NBS DNA” value was at most 0.2.
In the case of TYLI, the “one-hybrid fitness for binding NBS DNA” value is reported as at most 0.2.
For EEAM, the “one-hybrid fitness for binding NBS DNA” value was at most 0.2.
RVKA was tested, and the “one-hybrid fitness for binding NBS DNA” value was 0.355.
With AKVR the “one-hybrid fitness for binding NBS DNA” value was at most 0.2.
With PFTW the “one-hybrid fitness for binding NBS DNA” value was at most 0.2.
With QTCS the “one-hybrid fitness for binding NBS DNA” value was 0.495.
In the case of KQPC, the “one-hybrid fitness for binding NBS DNA” value is reported as at most 0.2.
GCER was tested, and the “one-hybrid fitness for binding NBS DNA” value was at most 0.2.
With RLAW the “one-hybrid fitness for binding NBS DNA” value was at most 0.2.
In the case of RYED, the “one-hybrid fitness for binding NBS DNA” value is reported as at most 0.2.
With EQTG the “one-hybrid fitness for binding NBS DNA” value was at most 0.2.
In the case of RGCY, the “one-hybrid fitness for binding NBS DNA” value is reported as at most 0.2.
With QEDL the “one-hybrid fitness for binding NBS DNA” value was at most 0.2.
In the case of DVMS, the “one-hybrid fitness for binding NBS DNA” value is reported as at most 0.2.
With LMTT the “one-hybrid fitness for binding NBS DNA” value was at most 0.2.
In the case of GSYC, the “one-hybrid fitness for binding NBS DNA” value is reported as at most 0.2.
VPSY was tested, and the “one-hybrid fitness for binding NBS DNA” value was at most 0.2.
With QPDP the “one-hybrid fitness for binding NBS DNA” value was at most 0.2.
TDPQ was tested, and the “one-hybrid fitness for binding NBS DNA” value was at most 0.2.
HVRS was tested, and the “one-hybrid fitness for binding NBS DNA” value was at most 0.2.
LYDG was tested, and the “one-hybrid fitness for binding NBS DNA” value was at most 0.2.
In the case of LSRV, the “one-hybrid fitness for binding NBS DNA” value is reported as at most 0.2.
MSVR was tested, and the “one-hybrid fitness for binding NBS DNA” value was at most 0.2.
For HMTG, the “one-hybrid fitness for binding NBS DNA” value was at most 0.2.
KHRH was tested, and the “one-hybrid fitness for binding NBS DNA” value was at most 0.2.
For SMRR, the “one-hybrid fitness for binding NBS DNA” value was at most 0.2.
With QMSY the “one-hybrid fitness for binding NBS DNA” value was at most 0.2.
In the case of ERYT, the “one-hybrid fitness for binding NBS DNA” value is reported as at most 0.2.
In the case of VAIL, the “one-hybrid fitness for binding NBS DNA” value is reported as at most 0.2.
For ILPC, the “one-hybrid fitness for binding NBS DNA” value was at most 0.2.
For TYLG, the “one-hybrid fitness for binding NBS DNA” value was at most 0.2.
KYAM was tested, and the “one-hybrid fitness for binding NBS DNA” value was at most 0.2.
NTVR was tested, and the “one-hybrid fitness for binding NBS DNA” value was at most 0.2.
In the case of DWAR, the “one-hybrid fitness for binding NBS DNA” value is reported as at most 0.2.
With MEPL the “one-hybrid fitness for binding NBS DNA” value was at most 0.2.
IRTK was tested, and the “one-hybrid fitness for binding NBS DNA” value was at most 0.2.
In the case of YVNE, the “one-hybrid fitness for binding NBS DNA” value is reported as at most 0.2.
With PSEP the “one-hybrid fitness for binding NBS DNA” value was at most 0.2.
For LMVS, the “one-hybrid fitness for binding NBS DNA” value was at most 0.2.
In the case of NGPN, the “one-hybrid fitness for binding NBS DNA” value is reported as at most 0.2.
With TALD the “one-hybrid fitness for binding NBS DNA” value was at most 0.2.
MWHG was tested, and the “one-hybrid fitness for binding NBS DNA” value was at most 0.2.
For LSQK, the “one-hybrid fitness for binding NBS DNA” value was at most 0.2.
In the case of MKVT, the “one-hybrid fitness for binding NBS DNA” value is reported as at most 0.2.
For RAKV, the “one-hybrid fitness for binding NBS DNA” value was at most 0.2.
With RQEP the “one-hybrid fitness for binding NBS DNA” value was at most 0.2.
In the case of FWYG, the “one-hybrid fitness for binding NBS DNA” value is reported as at most 0.2.
For QAGS, the “one-hybrid fitness for binding NBS DNA” value was 0.342.
For HESV, the “one-hybrid fitness for binding NBS DNA” value was at most 0.2.
For PETH, the “one-hybrid fitness for binding NBS DNA” value was at most 0.2.
With PCQL the “one-hybrid fitness for binding NBS DNA” value was at most 0.2.
HTAN was tested, and the “one-hybrid fitness for binding NBS DNA” value was at most 0.2.
With LRQL the “one-hybrid fitness for binding NBS DNA” value was at most 0.2.
In the case of MEPN, the “one-hybrid fitness for binding NBS DNA” value is reported as at most 0.2.
In the case of IAAP, the “one-hybrid fitness for binding NBS DNA” value is reported as at most 0.2.
For LLPN, the “one-hybrid fitness for binding NBS DNA” value was at most 0.2.
LGNA was tested, and the “one-hybrid fitness for binding NBS DNA” value was at most 0.2.
In the case of SLPA, the “one-hybrid fitness for binding NBS DNA” value is reported as at most 0.2.
VDYG was tested, and the “one-hybrid fitness for binding NBS DNA” value was at most 0.2.
PVKG was tested, and the “one-hybrid fitness for binding NBS DNA” value was at most 0.2.
MDKT was tested, and the “one-hybrid fitness for binding NBS DNA” value was at most 0.2.
With LLPR the “one-hybrid fitness for binding NBS DNA” value was at most 0.2.
PKYM was tested, and the “one-hybrid fitness for binding NBS DNA” value was at most 0.2.
With APCN the “one-hybrid fitness for binding NBS DNA” value was at most 0.2.
For HGDS, the “one-hybrid fitness for binding NBS DNA” value was at most 0.2.
PRAT was tested, and the “one-hybrid fitness for binding NBS DNA” value was at most 0.2.
In the case of SVQL, the “one-hybrid fitness for binding NBS DNA” value is reported as at most 0.2.
In the case of TVPY, the “one-hybrid fitness for binding NBS DNA” value is reported as at most 0.2.
HDRV was tested, and the “one-hybrid fitness for binding NBS DNA” value was at most 0.2.
With DIIR the “one-hybrid fitness for binding NBS DNA” value was at most 0.2.
ADTG was tested, and the “one-hybrid fitness for binding NBS DNA” value was at most 0.2.
For ILNG, the “one-hybrid fitness for binding NBS DNA” value was at most 0.2.
In the case of TYMN, the “one-hybrid fitness for binding NBS DNA” value is reported as at most 0.2.
QGLV was tested, and the “one-hybrid fitness for binding NBS DNA” value was at most 0.2.
With TSCV the “one-hybrid fitness for binding NBS DNA” value was at most 0.2.
With VRDG the “one-hybrid fitness for binding NBS DNA” value was at most 0.2.
LQCC was tested, and the “one-hybrid fitness for binding NBS DNA” value was at most 0.2.
For LRYT, the “one-hybrid fitness for binding NBS DNA” value was at most 0.2.
In the case of LICS, the “one-hybrid fitness for binding NBS DNA” value is reported as at most 0.2.
In the case of LNLL, the “one-hybrid fitness for binding NBS DNA” value is reported as at most 0.2.
For ASMA, the “one-hybrid fitness for binding NBS DNA” value was at most 0.2.
In the case of RYQH, the “one-hybrid fitness for binding NBS DNA” value is reported as at most 0.2.
For GPKD, the “one-hybrid fitness for binding NBS DNA” value was at most 0.2.
With AQTV the “one-hybrid fitness for binding NBS DNA” value was at most 0.2.
GSTM was tested, and the “one-hybrid fitness for binding NBS DNA” value was at most 0.2.
KQQA was tested, and the “one-hybrid fitness for binding NBS DNA” value was at most 0.2.
For VALY, the “one-hybrid fitness for binding NBS DNA” value was at most 0.2.
For LRRC, the “one-hybrid fitness for binding NBS DNA” value was at most 0.2.
For RHVG, the “one-hybrid fitness for binding NBS DNA” value was at most 0.2.
In the case of TCLT, the “one-hybrid fitness for binding NBS DNA” value is reported as at most 0.2.
With SVLT the “one-hybrid fitness for binding NBS DNA” value was at most 0.2.
In the case of CALM, the “one-hybrid fitness for binding NBS DNA” value is reported as at most 0.2.
RCPS was tested, and the “one-hybrid fitness for binding NBS DNA” value was at most 0.2.
For SLPK, the “one-hybrid fitness for binding NBS DNA” value was at most 0.2.
VDAQ was tested, and the “one-hybrid fitness for binding NBS DNA” value was at most 0.2.
For RDHA, the “one-hybrid fitness for binding NBS DNA” value was at most 0.2.
For VRRE, the “one-hybrid fitness for binding NBS DNA” value was at most 0.2.
With TGQS the “one-hybrid fitness for binding NBS DNA” value was at most 0.2.
VITH was tested, and the “one-hybrid fitness for binding NBS DNA” value was at most 0.2.
For TQKH, the “one-hybrid fitness for binding NBS DNA” value was at most 0.2.
For QCVF, the “one-hybrid fitness for binding NBS DNA” value was at most 0.2.
For LSHT, the “one-hybrid fitness for binding NBS DNA” value was at most 0.2.
With PCVT the “one-hybrid fitness for binding NBS DNA” value was at most 0.2.
QRRN was tested, and the “one-hybrid fitness for binding NBS DNA” value was 0.547.
MTLV was tested, and the “one-hybrid fitness for binding NBS DNA” value was at most 0.2.
For HIDS, the “one-hybrid fitness for binding NBS DNA” value was at most 0.2.
KRHS was tested, and the “one-hybrid fitness for binding NBS DNA” value was 0.464.
For QETS, the “one-hybrid fitness for binding NBS DNA” value was at most 0.2.
ISLT was tested, and the “one-hybrid fitness for binding NBS DNA” value was at most 0.2.
For TLTE, the “one-hybrid fitness for binding NBS DNA” value was at most 0.2.
FNKR was tested, and the “one-hybrid fitness for binding NBS DNA” value was at most 0.2.
TRRK was tested, and the “one-hybrid fitness for binding NBS DNA” value was at most 0.2.
GRVG was tested, and the “one-hybrid fitness for binding NBS DNA” value was at most 0.2.
In the case of PYHR, the “one-hybrid fitness for binding NBS DNA” value is reported as at most 0.2.
With DMWS the “one-hybrid fitness for binding NBS DNA” value was at most 0.2.
For EQMR, the “one-hybrid fitness for binding NBS DNA” value was at most 0.2.
TNED was tested, and the “one-hybrid fitness for binding NBS DNA” value was at most 0.2.
For HMQP, the “one-hybrid fitness for binding NBS DNA” value was at most 0.2.
QTKQ was tested, and the “one-hybrid fitness for binding NBS DNA” value was 0.568.
VMFR was tested, and the “one-hybrid fitness for binding NBS DNA” value was at most 0.2.
With AAWS the “one-hybrid fitness for binding NBS DNA” value was at most 0.2.
In the case of NDTN, the “one-hybrid fitness for binding NBS DNA” value is reported as at most 0.2.
